# Source: article PMC4336329 (PLoS ONE, 2015)
# The whole screen tested about 310,000 compounds, of which about 14,000 (4.5%) showed an effect of 50% or more. The effect is printed as a negative number. The list shows a part of the results.
# Target: human ether-à-go-go-related gene (hERG) potassium channel (human, UniProt Q12809)
# Assay: primary screen, population patch clamp on CHO cells stably expressing hERG
# 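Also: peak tail current of the secondary pulse compared with the same well before compound.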
# Sequence of human ether-à-go-go-related gene (hERG) potassium channel (Q12809 whole entry, looked up): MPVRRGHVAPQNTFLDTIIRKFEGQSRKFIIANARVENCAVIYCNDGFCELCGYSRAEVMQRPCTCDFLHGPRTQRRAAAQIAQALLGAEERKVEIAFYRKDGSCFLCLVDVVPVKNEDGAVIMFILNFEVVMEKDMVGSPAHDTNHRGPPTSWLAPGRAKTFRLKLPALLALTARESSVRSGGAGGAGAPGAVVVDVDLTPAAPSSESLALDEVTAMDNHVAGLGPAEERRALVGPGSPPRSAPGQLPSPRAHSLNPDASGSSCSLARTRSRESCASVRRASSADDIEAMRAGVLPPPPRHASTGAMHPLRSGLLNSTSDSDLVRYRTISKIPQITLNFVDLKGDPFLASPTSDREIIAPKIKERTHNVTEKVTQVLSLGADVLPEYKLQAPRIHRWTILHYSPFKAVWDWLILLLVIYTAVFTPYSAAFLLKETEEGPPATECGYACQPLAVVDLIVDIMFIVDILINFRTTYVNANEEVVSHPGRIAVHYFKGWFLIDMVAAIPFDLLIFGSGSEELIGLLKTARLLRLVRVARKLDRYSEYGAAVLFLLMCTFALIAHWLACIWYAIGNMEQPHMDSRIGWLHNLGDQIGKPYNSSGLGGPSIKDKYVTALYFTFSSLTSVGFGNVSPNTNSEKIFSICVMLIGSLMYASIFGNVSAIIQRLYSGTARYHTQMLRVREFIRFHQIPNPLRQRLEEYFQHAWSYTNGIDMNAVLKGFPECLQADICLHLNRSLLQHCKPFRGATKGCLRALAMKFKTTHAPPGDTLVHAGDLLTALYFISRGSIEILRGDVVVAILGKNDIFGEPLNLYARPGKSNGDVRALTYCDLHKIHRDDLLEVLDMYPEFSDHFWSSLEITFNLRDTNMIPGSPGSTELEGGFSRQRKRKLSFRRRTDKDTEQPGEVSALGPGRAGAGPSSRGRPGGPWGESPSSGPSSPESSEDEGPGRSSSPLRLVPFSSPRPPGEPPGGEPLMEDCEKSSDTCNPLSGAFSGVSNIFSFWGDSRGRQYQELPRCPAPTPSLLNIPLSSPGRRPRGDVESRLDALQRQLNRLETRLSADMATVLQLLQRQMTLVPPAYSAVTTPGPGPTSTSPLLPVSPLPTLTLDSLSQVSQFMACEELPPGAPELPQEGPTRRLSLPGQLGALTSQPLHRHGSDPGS
row,Structure (SMILES),"hERG current change (%, negative = inhibition) at 10uM [%]"
1,O=C(O)c1ccc(Cl)c(S(=O)(=O)Nc2ccc(OCc3ccccc3)cc2)c1,7.79
2,COCC(C)n1c(C)cc(C(=O)CSc2nc(C)c(C)c(C)n2)c1C (stereo not drawn),-16.4
3,CC(C)(C)c1ccccc1NC(=O)CN1C(=O)NC2(CCCCCC2)C1=O,4.14
4,O=S(=O)(c1ccccc1)N(CC1CO1)c1cc(Cl)ccc1Cl (stereo not drawn),14.2
5,O=C(COc1ncnc2ccccc12)NC(=O)NCc1ccccc1,-8.05
6,O=C(O)c1ccc(N2C(=O)CSC2=S)cc1,-9.23
7,CCOC(=O)c1ccc(NNC(C)=O)c([N+](=O)[O-])c1,19.9
8,O=C(N/N=C/c1c[nH]c2ccccc12)C1CC1c1ccccc1 (stereo not drawn),-4.47
9,CC(=O)NC(=O)NC1OC(=O)C(Cl)=C1Cl (stereo not drawn),3.52
10,Cc1nc(CN(C)C(=O)c2ccccc2OC2CCN(S(C)(=O)=O)CC2)cs1,3.35
11,COc1cc(OC)cc(-c2n[nH]c(=S)n2-c2ccc3c(c2)OCCO3)c1,18.2
12,COc1ccc(C(C(=O)NC2CCCC2)N(Cc2ccco2)C(=O)c2snc(C(N)=O)c2N)cc1OC (stereo not drawn),30.1
13,COc1ccc(C2CC(c3ccccc3)=NN2c2ccccc2)c(C(=O)O)c1OC (stereo not drawn),19.4
14,O=[N+]([O-])c1ccc(C(=S)N2CCC(Cc3ccccc3)CC2)cc1,-32.4
15,Cc1cc(C)n2nc(C(=O)Nc3nccs3)nc2n1,-11.8
16,COc1ccc(C(=O)NCCCOc2cccnc2)cc1OC1CCN(C(C)=O)CC1,5.18
17,Cc1ccc(CNC(=O)c2cccc3c2C(=O)c2ccc(N4CCCCC4)cc2S3(=O)=O)cc1,-6.76
18,CCC(C)(C(=O)Nc1ccc(OC)cc1)N(C)C(=O)Cn1nnnc1N (stereo not drawn),15.6
19,COCCNC(=O)C1CCN(Cc2cccc(OCc3ccccc3)c2)CC1,-12.2
20,N#C/C(=C\c1ccc(C(=O)O)cc1)c1ccccn1,21
21,Cc1ccc(Cn2ccnc2C(=O)Nc2ccccc2)cc1,6.59
22,CCN(CC)S(=O)(=O)c1ccc(C(=O)OCC(=O)Nc2sc3c(c2C#N)CCCCC3)cc1,8.12
23,O=C(c1ccco1)N1CCN(C(=O)C2CCN(S(=O)(=O)c3cccs3)CC2)CC1,-47.7

row,Structure (SMILES),"hERG current change (%, negative = inhibition) at 10uM [%]"
1,Brc1cccc(-c2nnc3sc(CNC4CCCC4)cn23)c1,-16.2
2,CCN(CC)C(=O)N1c2ccccc2C=Cc2ccccc21,-10.2
3,Cc1ccc(CNS(=O)(=O)c2ccc3c(c2)n(C)c(=O)c(=O)n3C)cc1,-13.5
4,COc1ccc(NC(=O)COC(=O)C23CCC(=O)N2c2ccccc2S3)cc1 (stereo not drawn),-4.68
5,COc1cc(NC(c2ccccc2)c2ccccc2)cc(OC)c1OC,17.9
6,Cn1ncc2c(N3CCC(Cc4ccccc4)CC3)ncnc21,-21.4
7,COCCCNC(=O)c1sc2ncnc(N3CCc4ccccc4C3)c2c1C,-23.9
8,Cc1noc(C)c1COc1ccc(C(=O)OCC(=O)Nc2c(C)n(C)n(-c3ccccc3)c2=O)cc1,15.9
9,Cc1cc(Br)cc(Cl)c1OC(=O)c1ccncc1,-2.84
10,Cn1c(SCC(=O)NNC(=O)Cc2ccccc2)nnc1-c1ccccc1,18.9
11,CC(C)OCC(O)CS(=O)Cc1ccccc1 (stereo not drawn),13.7
12,Cc1ccc(-n2nc3ccc(NC(=O)/C=C/c4ccco4)cc3n2)cc1,7.32
13,CCOC(=O)CSc1nc(N)c(C#N)c(-c2ccc(OCC)cc2)c1C#N,6.31
14,O=C1Nc2ccccc2Oc2cc([N+](=O)[O-])ccc21,7.63
15,CCOC(=O)C1CCCCN1Cc1ccc(F)cc1 (stereo not drawn),4.77
16,O=c1oc2ccc(NS(=O)(=O)c3cccc4cccnc34)cc2s1,24.4
17,CCC(CC)C(=O)N1CCN(c2ccccc2)CC1,-2.08
18,Fc1ccc(-c2nnn3c2nc(NCc2ccccc2)c2ccccc23)cc1,10.5
19,O=C(Oc1ccccc1C(=S)N1CCOCC1)c1ccc([N+](=O)[O-])cc1[N+](=O)[O-],-45.2
20,COc1cccc(CNC(=O)C2=Cc3cccc(OC)c3OC2)c1,4.36
21,CC(C)(C)NC(=O)NC(=O)COC(=O)CCCc1c[nH]c2ccccc12,-4.44
22,N#Cc1nc(-c2cccs2)oc1NCCN1CCOCC1,-6.24
23,CCCCOc1cccc(C(=O)N(Cc2cccs2)C2CCS(=O)(=O)C2)c1 (stereo not drawn),-29.2

row,Structure (SMILES),"hERG current change (%, negative = inhibition) at 10uM [%]"
1,N=C1C(=O)OCC1c1ccccc1NC(=O)CN1CCCCC1 (stereo not drawn),-3.03
2,CC(=O)NCCc1cc2ccc(C)cc2[nH]c1=O,11.4
3,C=CCn1cnc2c(c1=O)c1nc3ccccc3nc1n2-c1ccc(C)cc1,-9.49
4,O=C(COC(=O)CC1CCCCC1)Nc1c(Cl)cccc1Cl,12
5,Cc1nn(C)c(Cl)c1/C=N/OC(=O)c1ccc(F)cc1,-17.6
6,CCOC(=O)c1sc(=S)n(C)c1NC(=O)c1cccc(Br)c1,5.67
7,CC1CCN(S(=O)(=O)N2CCC(C(=O)NCc3cccs3)CC2)CC1,-22.9
8,Cc1ccc(/C=N\NC(=O)C2CC(=O)N(c3ccccc3)C2)o1 (stereo not drawn),-6.11
9,COc1ccc(S(=O)(=O)N2CCCC(C(F)(F)F)C2)cc1 (stereo not drawn),10.2
10,C[C@H](O)[C@@H](C(=O)N1CCN(C(=O)OC(C)(C)C)CC1)n1cc(CCCCNC(=O)OC(C)(C)C)nn1,-7.14
11,Cc1ccc(NC(=O)OCCN2CCN(S(=O)(=O)c3ccc(C)cc3)CCC2=O)cc1,-18.5
12,O=C(CS(=O)c1ccc(Br)cc1)N1CCOCC1 (stereo not drawn),1.98
13,C(=N\Nc1cc(N2CCCCC2)ncn1)/c1ccco1,2.21
14,CCOc1ccc(C(=O)Nc2nnc(C)s2)cc1OCC,-4.04
15,Cc1ccc(C)c(CSCC(=O)NCc2cccs2)c1,-3.29
16,CCN(CC)S(=O)(=O)c1ccc(N=Cc2c(O)n(-c3ccccc3)c(=O)[nH]c2=O)cc1,-5.2
17,O=C(NCc1n[nH]c(=S)n1-c1ccccc1)c1ccco1,23
18,O=C(O)c1c2c(nc3ccccc13)/C(=C/c1ccc(OC(F)F)cc1)CCC2,25.3
19,COc1cc(C2C(C(C)=O)=C(O)C(=O)N2CCc2ccc(OC)c(OC)c2)ccc1O (stereo not drawn),24.3
20,CCN(CC)S(=O)(=O)c1ccc(C)c(NC(=O)CN(C)C)c1,7.04
21,Brc1ccc(OCCOCCN2CCOCC2)cc1,-9
22,CC(C)(c1cc(Br)c(O)c(Br)c1)c1cc(Br)c(O)c(Br)c1,-12.8
23,COc1cc(NC(=O)COc2cc3oc(=O)cc(C)c3cc2Cl)cc(OC)c1OC,15.9

row,Structure (SMILES),"hERG current change (%, negative = inhibition) at 10uM [%]"
1,O=C(NCCS(=O)c1ccc(Cl)cc1)c1cccc(Cl)c1 (stereo not drawn),-12.2
2,CN(C(=O)c1cccc(C#N)c1)c1nnc(-c2ccccn2)s1,4.41
3,N/C(=N\OC(=O)c1cccc(Br)c1)c1ccccn1,21.6
4,CN1C2CCC1/C(=C\c1ccc(F)cc1)C(=O)/C2=C/c1ccc(F)cc1,-28.1
5,COCCCNC(=O)/C(C#N)=C/c1ccc(OCC(=O)O)c(OC)c1,3.89
6,C=CCNC(=O)Nc1ccc(F)c(Cl)c1,7.39
7,O=C(CCNC(=O)c1ccccc1Cl)NCC1CCCO1 (stereo not drawn),-13.2
8,O=C(N/N=C/c1cccnc1)c1ccc(NC(=O)C(c2ccccc2)c2ccccc2)cc1,-24.2
9,COc1ccc(-c2nn(CCC#N)cc2C(=O)O)cc1,16.9
10,Cc1cc(F)ccc1S(=O)(=O)NCC(c1cccnc1)N1CCc2ccccc21 (stereo not drawn),-1.61
11,O=C1CCC([N+](=O)[O-])C(c2cc3c(cc2Cl)OCO3)N1 (stereo not drawn),8.22
12,CCC(C)c1ccccc1NC(=O)COC(=O)C1=COCCO1 (stereo not drawn),6.9
13,N#C/C(=C\c1ccccc1)C(=O)N(c1ccccn1)C1CCCCC1,-20
14,CCOc1ccc(-n2nnnc2SCC(=O)NNC(=O)c2ccco2)cc1,-0.29
15,O=C1CSC(c2ccccc2F)N1c1cc(Cl)ccc1O (stereo not drawn),-4.06
16,NC(=O)N/N=C/c1c(O)ccc2oc3c(c12)CCCC3,13.1
17,CCNS(=O)(=O)c1ccc(CCC(=O)NCc2ccc(C)cc2)cc1,-53.1
18,CCC(CC)NC(=O)c1cc(OC)c(OC)c(OC)c1,15.9
19,Br.CCCCCCCCCCn1ccc(=N)cc1,-72.9
20,O=C(COC(=O)/C=C/c1ccc(C(F)(F)F)cc1)NCc1ccco1,23.1
21,Cc1ccc(C)c(NC(=O)c2ccc(OC(=O)c3ccco3)cc2)c1,0.438
